Reference: PMC4336329 (PLoS ONE, 2015)
The whole screen tested about 310,000 compounds, of which about 14,000 (4.5%) showed an effect of 50% or more. The effect is printed as a negative number. This is one part of the list.

Biological target: human ether-à-go-go-related gene (hERG) potassium channel (human, UniProt Q12809)
Test: primary screen, population patch clamp on CHO cells stably expressing hERG
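Also: peak tail current of the secondary pulse compared with the same well before compound.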

Sequence of human ether-à-go-go-related gene (hERG) potassium channel (Q12809 whole entry, looked up): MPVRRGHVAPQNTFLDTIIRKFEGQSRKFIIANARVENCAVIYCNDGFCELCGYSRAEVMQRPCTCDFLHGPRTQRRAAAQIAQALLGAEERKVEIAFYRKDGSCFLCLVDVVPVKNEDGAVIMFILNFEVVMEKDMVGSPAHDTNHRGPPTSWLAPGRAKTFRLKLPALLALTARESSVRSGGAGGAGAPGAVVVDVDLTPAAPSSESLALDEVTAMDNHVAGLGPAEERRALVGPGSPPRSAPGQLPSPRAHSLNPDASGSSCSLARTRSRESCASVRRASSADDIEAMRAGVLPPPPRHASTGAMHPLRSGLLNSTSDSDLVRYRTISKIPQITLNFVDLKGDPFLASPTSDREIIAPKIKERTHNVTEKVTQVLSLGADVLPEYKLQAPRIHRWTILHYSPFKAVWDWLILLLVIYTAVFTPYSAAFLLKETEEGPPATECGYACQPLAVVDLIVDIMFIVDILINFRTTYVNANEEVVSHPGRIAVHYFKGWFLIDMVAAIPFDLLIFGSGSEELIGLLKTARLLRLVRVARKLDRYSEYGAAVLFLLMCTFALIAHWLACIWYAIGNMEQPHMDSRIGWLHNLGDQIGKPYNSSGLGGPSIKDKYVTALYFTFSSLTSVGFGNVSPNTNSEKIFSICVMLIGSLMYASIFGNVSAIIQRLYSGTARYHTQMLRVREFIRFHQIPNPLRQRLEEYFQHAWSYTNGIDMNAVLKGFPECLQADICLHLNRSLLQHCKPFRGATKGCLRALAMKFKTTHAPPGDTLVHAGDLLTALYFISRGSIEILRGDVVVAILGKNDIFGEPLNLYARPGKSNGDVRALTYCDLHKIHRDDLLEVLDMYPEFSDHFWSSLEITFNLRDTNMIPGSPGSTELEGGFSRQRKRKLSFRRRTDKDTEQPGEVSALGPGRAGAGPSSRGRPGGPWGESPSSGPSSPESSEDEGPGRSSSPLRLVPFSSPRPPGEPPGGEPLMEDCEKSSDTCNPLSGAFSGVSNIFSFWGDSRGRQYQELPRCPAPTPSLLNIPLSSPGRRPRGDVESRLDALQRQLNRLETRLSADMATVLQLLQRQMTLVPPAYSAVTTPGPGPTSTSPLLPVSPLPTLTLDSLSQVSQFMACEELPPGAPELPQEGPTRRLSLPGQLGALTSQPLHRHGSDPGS

Row | Compound | hERG current change (%, negative = inhibition) at 10uM [%]
1 | Cc1ccc(C)c(C(=O)OCC(=O)N(C)c2ccccc2)c1 | -21.6
2 | COc1ccc(N=C2SC(C(=O)Nc3ccc(C(=O)O)cc3)CC(=O)N2Cc2cccs2)cc1 (stereo not drawn) | 10.7
3 | COc1cc(C(=O)OCC(=O)NC(N)=O)cc(CN2C(=O)c3ccccc3C2=O)c1OC | 9.89
4 | CC(C)N(C(=O)CSc1nnnn1-c1ccc2c(c1)OCO2)C(C)C | 8.46
5 | CCc1nc2ccccc2c(NC(=O)CN2CC(C)CC(C)C2)c1C (stereo not drawn) | -17.7
6 | COc1ccccc1NC(=O)C(=O)N(c1cccnc1)C(C(=O)NC(C)(C)C)c1ccccc1F (stereo not drawn) | 11.7
7 | Cn1c2ccccc2c(=O)c2ccc(C#Cc3ccccn3)cc21 | 8.23
8 | COC(=O)C(CCSC)NC(=O)/C=C/c1ccc(OC)cc1 (stereo not drawn) | -1.07
9 | Cc1ccc(-c2cc(C(F)F)nc(S(C)(=O)=O)n2)cc1 | -11.6
10 | O=C(NCc1ccccc1)C1=C[C@H](c2ccc(C(F)(F)F)cc2)C[C@H](OCc2ccc(CO)cc2)O1 | 8.87
11 | CCOC(=O)c1cccc(NC(=O)CCc2nc(-c3ccccc3F)no2)c1 | 8.4
12 | Cc1ccccc1C(=O)NC(CC(C)C)C(=O)Nc1ccc(S(N)(=O)=O)cc1 (stereo not drawn) | 16.4
13 | Cc1ccc(NC(=O)N[C@@H](CC(C)C)C(=O)O)c(C)c1 | 29.6
14 | CN1C(=O)C(O)(CC(=O)c2cccc(-n3cccc3)c2)c2ccccc21 (stereo not drawn) | -10.4
15 | S=C(Nc1ccc(Cl)cc1)N1CCN(Cc2ccccc2)CC1 | 1.73
16 | CCOC(=O)c1cc2c(=O)n3cccc(C)c3nc2n(Cc2ccco2)c1=NC(=O)c1ccccc1 | -37.2
17 | COc1ccc(NC(=O)C2CCC(C(C)(C)C)CC2)cc1S(=O)(=O)N1CCCCC1 (stereo not drawn) | -9.09
18 | COc1ccc(NC(=O)c2ccc(CN3CCN(c4ccccc4)CC3)cc2)cc1 | -9.47
19 | CC(NC1CCN(Cc2ccccc2)CC1)c1ccc(F)cc1 (stereo not drawn) | 3.46
20 | Cc1cc(C)c2ccc3c(C)c(C)nc3c2[nH]1 | 10.2
21 | CN(CC(=O)Nc1ccc(F)cc1)C(=O)c1ccc(N2C(=O)CCC2=O)cc1 | -9.61
22 | O=C(NCc1ccco1)c1ccccc1O | 10.5

Row | Compound | hERG current change (%, negative = inhibition) at 10uM [%]
23 | O=C(COC(=O)c1ccccc1-n1cnnn1)c1ccc(F)cc1 | -14
24 | COc1ccc(C2Oc3ccccc3N2C(C)=O)cc1 (stereo not drawn) | -14
25 | CC(C)CC(=O)Nc1ccc(C(=O)CN2CCC(C)CC2)cc1 | 8.63
26 | COc1ccc2nc(NC(=O)c3ccccc3O)sc2c1 | 18.2
27 | CCCCCCNC(=O)CNC(=S)N(Cc1cccs1)C1CCCCC1 | 2.13
28 | O=c1c(O)c(-c2cc(O)c(O)c(O)c2)oc2cc(O)cc(O)c12 | 22.6
29 | O=C(O)CCC(=O)NNC(=O)CCC(=O)NCc1ccccc1 | 16.5
30 | CCOC(=O)c1ccc(NC(=O)Nc2c(C)n(C)n(-c3ccccc3)c2=O)cc1 | -13.8
31 | COC(=O)c1cc(OCC(=O)NC2CCCc3ccccc32)cc(C(=O)OC)c1 (stereo not drawn) | -2.85
32 | NC(=O)c1c(NC(=O)CN2CCCC2)sc2c1CCCC2 | -5.13
33 | COc1ccc(-c2csc(NC(=O)c3ccc(C(C)(C)C)cc3)c2C(=O)O)cc1 | 24.9
34 | CCC(C)(C)NC(=O)C(c1cccc(OC)c1OC)N(CC(C)C)C(=O)CCC(=O)Nc1cc(C)on1 (stereo not drawn) | -2
35 | COc1cccc(CCC(=O)Nc2cc3c(cc2C(=O)O)OCCCO3)c1OC | 2.98
36 | O=S(=O)(Nc1ccccc1F)c1ccc(Cl)nc1 | 5.63
37 | Cc1ccc(C)c(NC(=O)c2sc(Cl)nc2-c2ccccc2)c1 | 13.9
38 | CC(C)c1ccc(N2C(=O)C(Cl)=C(N3CCOCC3)C2=O)cc1 | 13.6
39 | COc1cccc(NC(=O)Nc2cccc(C(=O)O)c2)c1 | 19.1
40 | O=C(Nc1ccc(F)c(F)c1)NC1CCCCC1 | 2.91
41 | Cn1c(N)c(C(=O)COC(=O)/C=C/c2ccccc2Cl)c(=O)n(C)c1=O | -2.34
42 | COc1ccc2oc(C(=O)N(C)CCOc3ccccc3)c(C)c2c1 | -28.9
43 | CCOc1ccc(C(=O)NC(C(=O)NCCc2ccc(S(N)(=O)=O)cc2)C(C)C)cc1 (stereo not drawn) | 13.4
44 | O=C(NC1C2CC3CC(C2)CC1C3)c1ccc(N2CCNCC2)c([N+](=O)[O-])c1 (stereo not drawn) | -18

Row | Compound | hERG current change (%, negative = inhibition) at 10uM [%]
45 | Cc1c(C(=O)NC2CCN(Cc3ccccc3)C2)oc2ccc(Br)cc12 (stereo not drawn) | -61.8
46 | CC(/C=C1\SC(=S)N(NC(=O)c2cccc(O)c2)C1=O)=C\c1ccccc1 | 16.6
47 | CN(Cc1ccccc1)C(=O)c1cccc(NC(=O)c2ccco2)c1 | -32.7
48 | Cc1cc(C)c(C)c(S(=O)(=O)N2CCN(c3ncnc4sc(C)c(C)c34)CC2)c1C | 8.21
49 | Cn1c(=O)c2c(nc(SCCN3CCCCC3)n2Cc2ccc(Cl)cc2)n(C)c1=O | -72.3
50 | COc1ccccc1NC(=O)c1ccc(NC(=O)CSc2n[nH]c(N)n2)cc1 | 16.1
51 | CCOc1ccc(C(=O)NCCC2=CCCCC2)cc1OCC | -0.0306
52 | O=C(c1ccccc1NS(=O)(=O)c1cccc2cccnc12)N1CCOCC1 | 7.65
53 | COc1cc(/C=C/C(=O)c2c(O)n(CCc3ccccc3)c(=O)[nH]c2=O)ccc1O | -2.53
54 | CCOc1ccc(C(=O)OCC(=O)NCCCc2ccccc2)cc1 | 0.425
55 | Cc1cc([N+](=O)[O-])nn1CC(=O)Nc1cccc2nonc12 | 15.1
56 | CCCc1cc(C(=O)OCC(=O)N(CCC)c2c(N)n(Cc3ccccc3)c(=O)[nH]c2=O)sc1C | -11.2
57 | C/C(=N\OC(=O)c1ccc(F)cc1)c1ccc(F)c(F)c1 | 12.9
58 | Cc1oc2c(c(C)cc3oc(=O)c(CC(=O)N[C@H](C(=O)O)C(C)C)c(C)c32)c1C | 15.2
59 | O=C(NCc1ccc2c(c1)OCO2)c1ccc2c(c1)OCCO2 | 8.03
60 | NC(=O)c1cc(S(=O)(=O)N2CC=C(c3ccccc3)CC2)cs1 | -4.82
61 | CCSC(C)CC1CC(=O)CC(=O)C1 (stereo not drawn) | -10.9
62 | COc1cccc(C(=O)NCCS(=O)(=O)N2CCC(C)CC2)c1 | -12.6
63 | CCOC(=O)c1ccc(Nc2c(CC)c(C)nc3ncnn23)cc1 | -14.3
64 | CCn1c(=NC(=O)CSCC(=O)Nc2nccs2)sc2ccccc21 | -5.31
65 | O=C(O)CSc1nc2ccccc2n1-c1ccccc1 | 9.51
66 | CC(=O)c1ccc(NS(=O)(=O)c2ccc(CC(C)C)cc2)cc1 | -7.55

Row | Compound | hERG current change (%, negative = inhibition) at 10uM [%]
67 | CCn1c(=O)n(CC(=O)NCc2ccco2)c(=O)c2ccccc21 | 12.8
68 | COc1ccc(CC(=O)NC(CC(=O)O)c2ccc(OC)cc2)cc1 (stereo not drawn) | 4.28
69 | O=C(C1=C[C@H](c2ccc(C(F)(F)F)cc2)C[C@H](OCCCCO)O1)N1CCN(Cc2ccccc2)CC1 | -49.6
70 | CC(C)(C)NC(=O)c1cc(F)c(F)cc1Cl | 12.9
71 | FC(F)(F)c1ccc(CN2C[C@@H]3C(c4ccc(Cl)nc4)C4(c5cccnc5)CC3(C4)[C@H]2c2ccccc2)cc1 (stereo partly drawn) | -8.85
72 | O=C(CSc1ccccc1)N1CCCC(N2CCN(c3cccc(Cl)c3)CC2)C1 (stereo not drawn) | -54.1
73 | c1ccc2c(Nc3nncs3)c3ccccc3nc2c1 | 11.9
74 | COc1ccc(CCNC(=S)N2CCN(S(=O)(=O)c3cccc(F)c3)CC2)cc1 | -4.44
75 | O=C(NNC(=O)C1CC1)Nc1ccc(Cl)cc1 | 6.38
76 | O=C(CSc1ccc(S(=O)(=O)N2CCOCC2)cn1)Nc1ccc(OC(F)F)cc1 | -0.0257
77 | CCOCCOC(=O)C1=C(C)N(C)C(=O)NC1c1ccccc1F (stereo not drawn) | -2.15
78 | COc1ccc2[nH]cc(C3N4CC5(C)CN3CC(C)(C4)C5=O)c2c1 (stereo not drawn) | 6.1
79 | COc1ccc2c(-c3ccccc3)cc(SCC(=O)NC(N)=O)nc2c1 | 19.7
80 | S=C1NCN(Cc2ccccc2)CN1C1CCCCC1 | 20.6
81 | CCOC(=O)c1c(N2C(=O)Nc3ccccc3N2O)n[nH]c1-c1cccc(Cl)c1 | 7.1
82 | Cc1cc(C)cc(N(CC(=O)Nc2ccc(C)cc2Cl)S(=O)(=O)c2c(C)[nH]c(=O)[nH]c2=O)c1 | -7.63
83 | O=C(NC1CCCCC1)N(Cc1ccccc1)Cc1ccco1 | -11.9
84 | COC(=O)c1nn(-c2ccc(Cl)cc2)c(=O)cc1Sc1ccccn1 | -11.5
85 | O=c1nc(N/N=C/c2ccco2)cn[nH]1 | 29.1
86 | COc1cccc(C(=O)N2CCN(S(=O)(=O)Cc3ccccc3)CC2)c1OC | -3.66
87 | CCCN(c1nc(C)cc(OC)n1)S(=O)(=O)c1ccccc1 | 0.318
